Experimental data published in ChEMBL document CHEMBL4888484, “Replenishing the malaria drug discovery pipeline: Screening and hit evaluation of the MMV Hit Generation Library 1 (HGL1) against asexual blood stage Plasmodium falciparum ,using a nano luciferase reporter read-out” (2022).
In all, about 150,000 compounds went through this assay and about 540 (0.36%) showed an effect of 50% or more. This is one part of the list.

test system: Plasmodium falciparum; test: Primary screen in NF54 nanoGlo assay, in single point, at 2uM, 72h; a lower Z score goes with more inhibition; type: functional, Erythrocyte; conditions: timepoint 72 hour

| SMILES | % Inhibition [%] | Z score |
| --- | --- | --- |
| CNC(=O)[C@H](CC(C)C)NC(=O)c1cc(C)n(Cc2ccco2)c1C | -10 | 1.79 |
| CCc1nc2ncc(-c3ccnc(N4CCCC4)n3)c(C)n2n1 | -4 | 0.68 |
| O=S(=O)(NC1CCN(Cc2ccc(F)c(F)c2)CC1)c1ccc2ccccc2c1 | -7 | 1.21 |
| O=C1CN(Cc2cnn(-c3ccccc3)n2)CCN1 | 6 | -0.87 |
| CC(C)(C)OC(=O)N1CCNc2ccccc21 | -10 | 1.56 |
| Fc1cc2c(c(CN3CCC[C@H](c4nc5ccccc5s4)C3)c1)OCOC2 | -3 | 0.52 |
| COC[C@H](C)NC(=O)CS(=O)(=O)c1ccccc1F | -8 | 1.11 |
| O=S(=O)(c1cccnc1)N1CC[C@H](n2ccnn2)C1 | -12 | 2.07 |
| Cc1cc(S(=O)(=O)NCc2ccc(N3CCOCC3)cc2)ccc1N1CCCC1=O | -30 | 2.65 |
| CC(C)n1ccnc1-c1nccn1CCc1cccs1 | -9 | 0.88 |
| O=C(Nc1ccc(C(F)(F)F)cc1)c1cc2cc(NC(=O)C3CCC3)ccc2n1Cc1cccc(F)c1 | 2 | -0.25 |
| COCC(=O)Nc1cc(C(=O)N(C)C(C2CC2)C2CC2)c2c(c1)nc(-c1ccncc1)n2C | -4 | 0.82 |
| C=CCNC(=O)CN(C)[C@@H](C)c1cc(-c2ccccc2)[nH]n1 | -3 | 0.25 |
| Cc1oc(-c2ccccc2)nc1CN1[C@H](C)CC[C@H](C(=O)O)[C@@H]1C | -8 | 0.77 |
| Cc1cc(S(C)(=O)=O)cc(C(=O)NCc2cccc(CO)n2)c1C | -12 | 1.54 |
| CCOC(=O)N1CCN(C(=O)C2C3C(=O)N(c4ccccc4)C[C@]34C=C[C@H]2O4)CC1 (stereo partly specified) | -12 | 1.56 |
| O=C(Cn1ccnc1)NC(=O)NC1CCCC1 | -5 | 0.92 |
| CCCCc1nc(-c2nccn2[C@@H](C)Cn2cccn2)c[nH]1 | -12 | 1.35 |
| O=C(CCc1nc2ccccc2s1)N1CC(F)(F)C[C@H]1c1nncn1CC1CC1 | -5 | 0.62 |
| CC(C)N1CCC(N2CCC[C@H](C(=O)N(C)Cc3ccccc3)C2)CC1 | 11 | -2.2 |
| COC(=O)C(c1cccc(O)c1)N(C)CCOC1CCCCO1 (stereo unspecified) | -4 | 0.87 |

| SMILES | % Inhibition [%] | Z score |
| --- | --- | --- |
| c1ccc2oc(CN3CCC(c4nnc5n4CCCCC5)CC3)cc2c1 | -16 | 2.23 |
| C[C@@H](c1ccccc1)n1cc(NC(=O)c2cc(=O)[nH]c(C3CC3)n2)cn1 | 2 | -0.31 |
| C[C@H]1Cc2ccccc2N1Cc1cnc(-c2ccccc2)s1 | -5 | 0.44 |
| Cc1cc(C(=O)N(Cc2ccccn2)c2ccc(F)cc2)on1 | -5 | 0.62 |
| CC[C@@H]1OC2(CCN(C(=O)c3[nH]c4ccccc4c3OC)CC2)NC1=O | 2 | -0.24 |
| CCO[C@H]1COC[C@@H]1NC(=O)N(C)Cc1cnc(-c2ccccc2)s1 | -9 | 1.47 |
| CC(C)C(=O)N(Cc1cc(NC(=O)C2CCC2)ccc1N(C)C)[C@@H](C)C(C)C | -2 | 0.23 |
| O=C(Nc1ccc(C(=O)N2CCCCC2)c(Cl)c1)c1ccccn1 | -8 | 1 |
| CC(C)(CC(=O)N1CCO[C@H](C(F)F)C1)Cc1ccc(Cl)cc1 | 4 | -0.73 |
| CC(=O)N1CCN(C(=O)C[C@@H]2CCN3C[C@@H]2/C=C/COc2ccc(N(C)CCc4ccccn4)cc2CNCC3=O)CC1 | -13 | 1.64 |
| CC[C@H](C)Cc1nc(-c2cnc(N)s2)n(CC)n1 | -10 | 1.4 |
| Cc1c(NC(=O)N2CCC([C@H](C)O)CC2)cccc1OC1CCCC1 | -4 | 0.81 |
| COc1ccc(CCNc2nc(-c3ccccc3OC)c3c(N)n(-c4ccccc4)nc3n2)cc1 | -4 | 0.4 |
| Cc1ccc(Nc2[nH]nnc2C(=O)N[C@H]2CCc3ccccc32)cc1C | 33 | -0.85 |
| CC(=O)N1CCC(CC(=O)Nc2cc(Cl)cc(Cl)c2)(N2Cc3ccccc3C2=O)CC1 | -7 | 1.19 |
| Cc1cc(NCC(=O)Nc2ccn(C)n2)nc(C2CCC2)n1 | -6 | 0.95 |
| N#Cc1ccc(CN2CCN3C(=O)c4ccccc4OCC[C@@H]4CC[C@@H](n5cc(CN6CCOCC6)nn5)[C@@H](CNC(=O)[C@@H]3C2)O4)cc1 | -4 | 0.55 |
| Cc1c(CC(=O)N2CCC(O)CC2)c2c(n1CCc1ccccc1)CCCC2=O | -13 | 1.15 |
| Nc1nc(N2CCC[C@H](c3nccn3CC3CC3)C2)c2nc[nH]c2n1 | 11 | -1.54 |
| COc1ccc(S(=O)(=O)N2CCC3(CC2)C[C@@H]3c2nnc3n2CCCCC3)cc1C | -4 | 0.64 |
| COc1cccc(C(=O)N2CC[C@H](Oc3cnccn3)C2)c1OC | -5 | 0.74 |

| SMILES | % Inhibition [%] | Z score |
| --- | --- | --- |
| CCO[C@@H](C)C(=O)NCCCn1cccn1 | 1 | -0.1 |
| CC(C)OC[C@@H](O)CN1CCCS1(=O)=O | -4 | 0.73 |
| CCC#CCN1CCC(CCNC(C)=O)CC1 | -11 | 1.71 |
| O=C(NCCc1cn[nH]c1)[C@@H]1CCC[C@H](O)C1 | -13 | 1.28 |
| O=C(C[C@H]1COc2ccc(Cl)cc2N1Cc1ccc(F)cc1)Nc1nccs1 | -11 | 1.53 |
| Cc1nc(C)c(C)c(N2CCC[C@H](c3cn(C)nn3)C2)n1 | -5 | 0.95 |
| Cc1nn(C)c(C)c1[C@H]1OCC[C@@H]1NC(=O)CC1CC2CCC1C2 (stereo partly specified) | 2 | -0.2 |
| CN(Cc1csc(-c2cccs2)n1)C1Cc2ccccc2C1 | -2 | 0.21 |
| O=C(NCc1ccccc1)c1cc[n+](Cc2cccc(C(F)(F)F)c2)cc1 | -8 | 0.97 |
| Cc1cc2[nH]cc(C(=O)N3CCC(c4nccn4CC4CC4)CC3)c(=O)n2n1 | -19 | 2.06 |
| COc1ccc(C(=O)N(Cc2cc(NC(=O)C(C)C)ccc2N(C)C)C[C@H]2CCCO2)cc1 | -18 | 2.49 |
| COc1cccc(CN2C(=O)CCCC[C@H]2C(=O)NCC(C)C)c1 | 2 | -0.27 |
| CC(C)c1ccoc1C(=O)N1C[C@H](CS(N)(=O)=O)[C@@H](C)C1 | -14 | 1.43 |
| CN(Cc1nccn1C)Cc1nnnn1CC(F)(F)F | 7 | -0.8 |
| CCc1ccc(Br)cc1C(=O)N1CC(C)(C(N)=O)C1 | -2 | 0.25 |
| CC(C)CC1(CNC(=O)N(C)Cc2ncc[nH]2)CCC1 | 1 | -0.13 |
| O=C(Cc1ccc2cn[nH]c2c1)N1CC[C@H](n2cccn2)C1 | -9 | 1 |
| CCc1cc(C(=O)N2CCC[C@@H]2COC)cc(=O)[nH]1 | -10 | 1.6 |
| CCN1CC2(CCN(c3ncc(OC)cn3)CC2)CC1=O | -2 | 0.23 |
| COc1ccc(-c2nn(-c3ccccc3C)cc2CN2CCC[C@@H]2CCO)cc1F | -1 | 0.16 |
| Cc1ccc(CN[C@@H]2CO[C@H](CNC(=O)N3CCOCC3)[C@H]2O)cc1 | 5 | -0.62 |

| SMILES | % Inhibition [%] | Z score |
| --- | --- | --- |
| CC(C)(C)CN1CC[C@H](C2CCN(c3ncccc3C(N)=O)CC2)C1 | -1 | 0.19 |
| CC1C(C(F)(F)F)OCCN1C(=O)Nc1cnc(CC2CC2)nc1 (stereo unspecified) | -3 | 0.49 |
| CC(C)(C)c1cnc(CNC2(c3ccccc3)CC2)o1 | -21 | 3.03 |
| CC(CC(=O)N1CCC(C)C(O)C1)C(=O)c1ccc(Cl)cc1 (stereo unspecified) | -8 | 1.19 |
| Cc1noc(C)c1CN(C)C(=O)Nc1ccc(C(F)(F)F)cc1 | -1 | 0.17 |
| C1CN(CCN2CCOCC2)CCO1 | -34 | 4.05 |
| Cc1cc2c(cc1-c1ccnc3nc(-c4cccnc4)nn13)[C@@H](C)CC(C)(C)N2 | -11 | 1.44 |
| Cc1cccnc1NC(=O)N[C@@H](Cc1ccccc1)C1CC1 | -2 | 0.25 |
| CNc1nc(C(=O)N2CCN(C)[C@@]3(CCNC(=O)CC3)C2)cs1 | -3 | 0.51 |
| CS(=O)(=O)c1ccc(CN2CCC[C@H]2COc2ccccc2)o1 | 3 | -0.36 |
| Cn1cncc1CNC(=O)c1ncccc1O | 2 | -0.3 |
| Cc1ccc(Nc2nc(=O)[nH]nc2C)c(C)c1 | 0 | 0.01 |
| CCOCCN1CCN(C(=O)c2ccon2)CC1 | -8 | 1.46 |
| O=C(c1ccc2[nH]ccc2c1)N1CCN(C(=O)c2cc3n(n2)CCCC3)CC1 | -7 | 1.02 |
| CCn1c(CN[C@@H](C)c2ccccc2Cl)nc2cc(S(=O)(=O)N3CCCCC3)ccc21 | 30 | -3.83 |
| c1cc2cc(CN(Cc3cscn3)C3CC3)ccc2[nH]1 | 13 | -1.67 |
| CCN(CC(=O)NCc1cccs1)Cc1cc(=O)n(C)c(=O)n1C | -9 | 1.81 |
| CCOC(=O)N1CCN(C(=O)[C@H]2CC23CCN(Cc2cc4ccccc4o2)CC3)CC1 | -9 | 1.24 |
| CCOC(=O)c1nccn1[C@H]1CCN(Cc2ccccc2)C1 | -6 | 1.19 |
| COc1ccc(-c2noc(N3CCN(c4ncccn4)CC3)n2)cc1OC | -17 | 1.51 |
